The list shows a part of the results. Most values come without repeats; read them as rough.
The molecules below were run on 501Mel (assay: cell count relative to DMSO control; melanoma cells; higher = more viable cells). Conditions: library dose: standard library concentration; 72 h.
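Further: cells treated in 1,536-well plates, then fixed and DAPI-stained, with nuclei counted from automated high-throughput microscope images.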

| Compound | cell count |
| --- | --- |
| CC(C)(C)c1cnc(CSc2cnc(NC(=O)C3CCNCC3)s2)o1 + N#Cc1c(O)c2c(-c3ccc(-c4ccccc4O)cc3)csc2[nH]c1=O [A769662] (first compound 0.05 µM, partner dose 10 µM) | 102% |
| CN(NC(=O)CC(=O)NN(C)C(=S)c1ccccc1)C(=S)c1ccccc1 + COc1cc2ncnc(Nc3ccc(Oc4ccccc4)cc3)c2cc1OC [SrcI1] (first compound 0.03 µM, partner dose 10 µM) | 6.94% |
| Cc1ccc(NC(=O)c2cccc(N(C)C)c2)cc1NC(=O)c1ccc(O)cc1 + COc1cc2ncnc(Nc3ccc(Oc4ccccc4)cc3)c2cc1OC [SrcI1] (first compound 10 µM, partner dose 10 µM) | 61.6% |
| CC(C)(C)c1cnc(CSc2cnc(NC(=O)C3CCNCC3)s2)o1 + Oc1cc(-c2nc(-c3ccccc3)[nH]c2-c2ccncc2)ccc1Cl [L779450] (first compound 0.05 µM, partner dose 1 µM) | 57.7% |
| COc1cc2c(Oc3ccc4[nH]c(C)cc4c3F)ncnc2cc1OCCCN1CCCC1 [cediranib] + Oc1cc(-c2nc(-c3ccccc3)[nH]c2-c2ccncc2)ccc1Cl [L779450] (first compound 2 µM, partner dose 1 µM) | 56.3% |
| COc1cc2c(Oc3ccc4[nH]c(C)cc4c3F)ncnc2cc1OCCCN1CCCC1 [cediranib] + O=C(Nc1ccccc1)c1cc([N+](=O)[O-])ccc1Cl [GW9662] (first compound 2 µM, partner dose 10 µM) | 67.1% |
| CC(C)(C)c1cnc(CSc2cnc(NC(=O)C3CCNCC3)s2)o1 + CCCCCCCCCCCC1=C(O)C(=O)C=C(O)C1=O [Embelin] (first compound 0.05 µM, partner dose 6 µM) | 75.1% |
| Cc1ccc(NC(=O)c2cccc(N(C)C)c2)cc1NC(=O)c1ccc(O)cc1 + Cc1cc([N+](=O)[O-])ccc1NS(=O)(=O)c1cc(Cl)ccc1Cl [FH535] (first compound 10 µM, partner dose 5 µM) | 77.2% |
| NC(=O)c1ccc(N(C(N)=O)c2c(F)cccc2F)nc1-c1ccc(F)cc1F + Cc1cc([N+](=O)[O-])ccc1NS(=O)(=O)c1cc(Cl)ccc1Cl [FH535] (first compound 2 µM, partner dose 5 µM) | 84.3% |
| CCc1ccc(CCOc2ccc(CC3SC(=O)NC3=O)cc2)nc1 (centres undefined) [pioglitazone] + O=S(=O)(c1ccccc1)N(CC(F)(F)F)c1ccc(C(O)(C(F)(F)F)C(F)(F)F)cc1 [T0901317] (first compound 10 µM, partner dose 7 µM) | 72.6% |
| Cc1ccc(NC(=O)c2cccc(N(C)C)c2)cc1NC(=O)c1ccc(O)cc1 + c1cc(-c2cnn3cc(-c4ccc(OCCN5CCCCC5)cc4)cnc23)ccn1 [Dorsomorphin] (first compound 10 µM, partner dose 2 µM) | 43.5% |
| Cc1ccc(NC(=O)c2cccc(N(C)C)c2)cc1NC(=O)c1ccc(O)cc1 + CC(C)CCN1c2nc(Nc3cc(F)c(O)c(F)c3)ncc2N(C)C(=O)C1C [BID1870] (first compound 10 µM, partner dose 1 µM) | 65.7% |
| CN(NC(=O)CC(=O)NN(C)C(=S)c1ccccc1)C(=S)c1ccccc1 + O=S(=O)(c1ccccc1)N(CC(F)(F)F)c1ccc(C(O)(C(F)(F)F)C(F)(F)F)cc1 [T0901317] (first compound 0.03 µM, partner dose 7 µM) | 2.28% |
| CN(NC(=O)CC(=O)NN(C)C(=S)c1ccccc1)C(=S)c1ccccc1 + Oc1nc(-c2ccc(C(F)(F)F)cc2)nc2c1CSCC2 [XAV939] (first compound 0.03 µM, partner dose 10 µM) | 6.09% |
| CCc1ccc(CCOc2ccc(CC3SC(=O)NC3=O)cc2)nc1 (centres undefined) [pioglitazone] + Cn1cc(/C=C2\C(=O)Nc3cccnc32)c2ccccc21 [GW441756] (first compound 10 µM, partner dose 2 µM) | 55.2% |

These molecules were tested on A101D in the same assay as above. Conditions: library dose: standard library concentration; 72 h.

| Compound | cell count |
| --- | --- |
| NC(=O)c1ccc(N(C(N)=O)c2c(F)cccc2F)nc1-c1ccc(F)cc1F + Cn1c(=O)n(-c2ccc(C(C)(C)C#N)cc2)c2c3cc(-c4cnc5ccccc5c4)ccc3ncc21 [NVP-BEZ235] (first compound 2 µM, partner dose 0.02 µM) | 62.2% |
| CC(C)(C)c1cnc(CSc2cnc(NC(=O)C3CCNCC3)s2)o1 + N#Cc1c(O)c2c(-c3ccc(-c4ccccc4O)cc3)csc2[nH]c1=O [A769662] (first compound 0.05 µM, partner dose 10 µM) | 81.8% |
| CCCCCCCCc1ccc(CCC(N)(CO)CO)cc1 [fingolimod] + Nc1ncn([C@H]2C[C@H](O)[C@@H](CO)O2)c(=O)n1 [decitabine] (first compound 10 µM, partner dose 0.5 µM) | 4.92% |
| CN(NC(=O)CC(=O)NN(C)C(=S)c1ccccc1)C(=S)c1ccccc1 + COc1cc2ncnc(Nc3ccc(Oc4ccccc4)cc3)c2cc1OC [SrcI1] (first compound 0.03 µM, partner dose 10 µM) | 29.4% |
| Cc1ccc(NC(=O)c2cccc(N(C)C)c2)cc1NC(=O)c1ccc(O)cc1 + COc1cc2ncnc(Nc3ccc(Oc4ccccc4)cc3)c2cc1OC [SrcI1] (first compound 10 µM, partner dose 10 µM) | 65.3% |
| CCCCCCCCc1ccc(CCC(N)(CO)CO)cc1 [fingolimod] + OCc1c[nH]c2ccccc12 [Indole-3-carbinol] (first compound 10 µM, partner dose 4 µM) | 4.3% |
| NC(=O)c1ccc(N(C(N)=O)c2c(F)cccc2F)nc1-c1ccc(F)cc1F + C[C@]1(c2nc3c(C(N)=O)cccc3[nH]2)CCCN1 [Veliparib] (first compound 2 µM, partner dose 7 µM) | 84.1% |
| CCCCCCCCc1ccc(CCC(N)(CO)CO)cc1 [fingolimod] + O=C(O)[C@@H]1[O][Sb](=[O])([O][Sb]2(=[O])[O][C@H]([C@H](O)CO)[C@H](O)[C@H](C(=O)O)[O]2)[O][C@H]([C@H](O)CO)[C@@H]1O [stibogluconate] (first compound 10 µM, partner dose 10 µM) | 17.8% |
| CC(C)(C)c1cnc(CSc2cnc(NC(=O)C3CCNCC3)s2)o1 + Oc1cc(-c2nc(-c3ccccc3)[nH]c2-c2ccncc2)ccc1Cl [L779450] (first compound 0.05 µM, partner dose 1 µM) | 68.1% |
| NC(=O)c1ccc(N(C(N)=O)c2c(F)cccc2F)nc1-c1ccc(F)cc1F + Nc1ccn([C@@H]2O[C@H](CO)[C@@H](O)C2(F)F)c(=O)n1 [gemcitabine] (first compound 2 µM, partner dose 0.002 µM) | 68.1% |
| CC(C)(C)c1cnc(CSc2cnc(NC(=O)C3CCNCC3)s2)o1 + COc1cc2c(Oc3ccc4[nH]c(C)cc4c3F)ncnc2cc1OCCCN1CCCC1 [cediranib] (first compound 0.05 µM, partner dose 2 µM) | 68.6% |
| NC(=O)c1ccc(N(C(N)=O)c2c(F)cccc2F)nc1-c1ccc(F)cc1F + CCc1ccc(CCOc2ccc(CC3SC(=O)NC3=O)cc2)nc1 [pioglitazone] (first compound 2 µM, partner dose 10 µM) | 89.5% |
| Cc1ccc(NC(=O)c2cccc(N(C)C)c2)cc1NC(=O)c1ccc(O)cc1 + CN(C)S(=O)(=O)c1ccc2c(c1)/C(=C/c1cc3c([nH]1)CCCC3)C(=O)N2 [SU6656] (first compound 10 µM, partner dose 2 µM) | 61.5% |
| COc1cc2c(Oc3ccc4[nH]c(C)cc4c3F)ncnc2cc1OCCCN1CCCC1 [cediranib] + Oc1cc(-c2nc(-c3ccccc3)[nH]c2-c2ccncc2)ccc1Cl [L779450] (first compound 2 µM, partner dose 1 µM) | 78.3% |
| COc1cc2c(Oc3ccc4[nH]c(C)cc4c3F)ncnc2cc1OCCCN1CCCC1 [cediranib] + O=C(Nc1ccccc1)c1cc([N+](=O)[O-])ccc1Cl [GW9662] (first compound 2 µM, partner dose 10 µM) | 75.6% |
| CC(C)(C)c1cnc(CSc2cnc(NC(=O)C3CCNCC3)s2)o1 + CCCCCCCCCCCC1=C(O)C(=O)C=C(O)C1=O [Embelin] (first compound 0.05 µM, partner dose 6 µM) | 100% |
| Cc1ccc(NC(=O)c2cccc(N(C)C)c2)cc1NC(=O)c1ccc(O)cc1 + Cc1cc([N+](=O)[O-])ccc1NS(=O)(=O)c1cc(Cl)ccc1Cl [FH535] (first compound 10 µM, partner dose 5 µM) | 60.7% |
| CCCCCCCCc1ccc(CCC(N)(CO)CO)cc1 [fingolimod] + CO[C@H]1C[C@@H]2CC[C@@H](C)[C@@](O)(O2)C(=O)C(=O)N2CCCC[C@H]2C(=O)O[C@H]([C@H](C)C[C@@H]2CC[C@@H](OCCO)[C@H](OC)C2)CC(=O)[C@H](C)/C=C(\C)[C@@H](O)[C@@H](OC)C(=O)[C@H](C)C[C@H](C)/C=C/C=C/C=C/1C [everolimus] (first compound 10 µM, partner dose 0.1 µM) | 7.2% |
| NC(=O)c1ccc(N(C(N)=O)c2c(F)cccc2F)nc1-c1ccc(F)cc1F + CN(C)S(=O)(=O)c1ccc2c(c1)/C(=C/c1cc3c([nH]1)CCCC3)C(=O)N2 [SU6656] (first compound 2 µM, partner dose 2 µM) | 68.2% |
